# The supplement of paper PMC3724861
# The other results are listed elsewhere or left out.
# System: T1, Caupolican (Caup) homeodomain DNA-binding domain
# T1 sequence: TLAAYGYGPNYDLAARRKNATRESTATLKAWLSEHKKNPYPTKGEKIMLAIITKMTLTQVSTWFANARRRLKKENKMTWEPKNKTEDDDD
# Assay: PBM E-score (8-mer, recovered from the published 9-mer minima) (E-score (dimensionless, -0.5 to 0.5)); Drosophila protein; higher = stronger relative binding preference, active = 0.31 or more
# Description: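 Protein binding microarray (PBM): in vitro transcribed/translated Caupolican (Caup) homeodomain DNA-binding domain (residues 214-303) applied at 100 nM to a universal 8-mer PBM array (Agilent AMADID 015681). The 8-mer enrichment score (E-score, range -0.5 to 0.5) was computed, and each 9-mer score is the minimum E-score of its two constituent 8-mers. The E-score is the same for a 9-mer and its reverse complement; 0.31 is the stated binding threshold.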
row,Sequence,PBM E-score
1,GCCTGGGA,inactive: -0.127
2,ACTGATCG,inactive: 0.0372
3,AGCACCCA,inactive: -0.0889
4,GAGGGGGA,inactive: -0.347
5,ATACGAAC,inactive: 0.147
6,GCCATGGC,inactive: -0.246
7,ACAGAAGC,inactive: 0.0412
8,CTCCCAGA,inactive: -0.16
9,AGTTCCTA,inactive: 0.0222
10,GACACCCA,inactive: 0.0402
11,GGGCCAGA,inactive: -0.206
12,AAGAATCT,inactive: -0.0458
13,ACGTTCAT,inactive: 0.101
14,GAACCAAC,inactive: 0.0185
15,ATCCGCCA,≥ -0.0933
16,GATATCGA,inactive: 0.111
17,ACTCTTAG,inactive: -0.0263
18,GATCTCCA,inactive: -0.106
19,GATACGAC,inactive: 0.117
20,AGGTCGAT,inactive: -0.0468
21,GGCTTCCC,inactive: -0.202
22,AGTACCTC,inactive: 0.115
23,GTTTAACA,inactive: 0.256
24,GTGCCTTA,inactive: -0.0425
25,CAAGTTGC,inactive: 0.032

row,Sequence,PBM E-score
1,CCTCCACA,inactive: -0.164
2,AGTGATAC,inactive: 0.0617
3,ATGTCTAA,inactive: 0.288
4,GAACAGGA,inactive: 0.16
5,AAATCAGT,inactive: 0.135
6,CCCAACAG,inactive: -0.0789
7,ATAACCAC,inactive: 0.167
8,GTCACGAC,inactive: 0.139
9,GGAATGAC,inactive: 0.0513
10,GGTTCCCA,inactive: -0.103
11,CGCCGTTA,inactive: -0.0518
12,AAGTCACA,inactive: 0.0474
13,ACGTTAGA,inactive: 0.0532
14,CAGACGAC,inactive: 0.0504
15,CAAACGCC,inactive: -0.0758
16,ACTTTATC,inactive: 0.0909
17,GGGCCTCA,inactive: -0.273
18,GGAGCTTA,≥ -0.0262
19,GAACTCCC,inactive: -0.11
20,GACCCCGA,inactive: -0.174
21,GGGTGGAC,inactive: -0.109
22,CGATTTGA,inactive: 0.0488
23,ACCGACTA,inactive: 0.0195
24,AGCTGCAA,inactive: -0.077
25,GGGTCTCA,inactive: -0.141

row,Sequence,PBM E-score
1,CCTGTTGC,inactive: 0.0638
2,GTCGGCAA,inactive: -0.08
3,CTAATTGC,inactive: -0.00967
4,CAGCGCCC,inactive: -0.274
5,CAAATGCC,inactive: -0.164
6,CCGAGCGA,inactive: -0.0487
7,GGGATAAC,inactive: 0.0133
8,AAGACCCG,inactive: -0.184
9,AATAGGCT,inactive: -0.0328
10,AACAGCGC,inactive: 0.0512
11,GGTTCCAA,inactive: -0.0408
12,ACAACTAG,inactive: 0.206
13,TCTCCTAA,inactive: 0.0625
14,AAGCCTCA,inactive: -0.102
15,AGGCATGA,inactive: -0.0469
16,TCGAAAAA,inactive: -0.00773
17,ACTCCTCC,inactive: -0.132
18,GGGCTAGA,inactive: -0.158
19,AATGCTAT,inactive: 0.0644
20,ACGTAAAC,inactive: -0.00203
21,TACTTCGA,inactive: 0.103
22,AAACCGTC,inactive: -0.0672
23,TCGAGGAA,inactive: -0.067
24,AACACTTG,inactive: 0.198
25,GCCTACAA,inactive: 0.0833

row,Sequence,PBM E-score
1,CCCCGAGA,inactive: -0.183
2,CGGAGTTA,inactive: -0.0226
3,GTTCTAAA,inactive: 0.0252
4,CGCTCCAA,inactive: -0.105
5,GATGATTA,inactive: 0.0929
6,CGTCCGCA,inactive: -0.0747
7,ACGTTTCC,inactive: -0.0583
8,CGCTCGTC,inactive: -0.0959
9,ACTGCACG,inactive: -0.0621
10,AACCGATG,inactive: 0.0188
11,GCCCGACA,inactive: 0.0626
12,CGCGTCCG,≥ -0.0557
13,ACGATGAC,inactive: 0.0356
14,GTCAATCA,inactive: 0.0914
15,AATGAGCC,inactive: -0.124
16,AAATGTCT,inactive: 0.106
17,ATCTTCCC,inactive: -0.0386
18,CCAAGATC,inactive: -0.0393
19,ATGCCTCG,≥ -0.00058
20,ACCGGGCA,inactive: -0.171
21,AAAGCTGC,inactive: -0.0478
22,GGAGTGCC,inactive: -0.187
23,AGAGAGGG,inactive: -0.211
24,CATGCAGC,inactive: -0.0613
25,AACGGTGG,inactive: -0.138

row,Sequence,PBM E-score
1,AGAAGCTC,inactive: -0.137
2,CATAAGAG,inactive: -0.0264
3,AACTAGTT,inactive: 0.194
4,GTTCTCCA,inactive: 0.0206
5,CGACCAAA,≥ 0.0331
6,CGTATGGA,inactive: -0.0565
7,AAATATAC,inactive: 0.177
8,GGATCATA,inactive: 0.00281
9,TAGGTGGA,≥ 0.046
10,CCATATAG,inactive: -0.0336
11,GCTGAGTA,inactive: -0.0179
12,ATTAATGG,inactive: 0.19
13,ATATACCA,inactive: 0.172
14,CCAACTGG,inactive: -0.0571
15,ATTAACTA,≥ 0.201
16,ATACCGAC,inactive: 0.034
17,ACTCGTAC,inactive: 0.135
18,GGCTAACA,inactive: 0.109
19,CCGGTGTA,inactive: 0.0793
20,AGTTAGAA,inactive: 0.00094
21,AACGGCCT,inactive: -0.161
22,CCTAAGTA,inactive: 0.0338
23,GGTGAACC,inactive: -0.089
24,CCCCGATA,inactive: -0.121
25,CTCGTGGC,inactive: -0.127

row,Sequence,PBM E-score
1,AGTCTATC,inactive: 0.073
2,CCCTTAAG,inactive: -0.0555
3,ATCCGATC,≥ 0.167
4,ACAACATC,active: 0.356
5,GCTTATCA,inactive: 0.0595
6,AATAACGC,inactive: 0.0476
7,CTAAAAGA,≥ 0.0807
8,AGCACTAT,inactive: 0.1
9,CGATCCAA,inactive: 0.0185
10,ATCGAATG,inactive: 0.116
11,CTATGTAA,active: 0.338
12,AGTGGCTG,inactive: -0.138
13,AGGCCTGA,inactive: -0.149
14,CACACTTA,inactive: 0.0946
15,GCAACGTA,inactive: 0.02
16,GAGGAGTA,inactive: -0.0343
17,GGGGTCCA,inactive: -0.258
18,CAAGGTAG,inactive: -0.0378
19,ACGAGGCA,inactive: -0.012
20,CGGTCGTA,inactive: 0.0409
21,GCAAAAGC,inactive: -0.0362
22,CGGCAAAA,inactive: -0.0139
23,CACGAGGC,inactive: -0.0738
24,GCCATCGA,inactive: -0.0979
25,CAGGAGGC,inactive: -0.159

row,Sequence,PBM E-score
1,CGCCGGAG,inactive: -0.199
2,AACTAAAC,inactive: 0.102
3,CTTTCGCA,inactive: -0.0864
4,CTTCGGTC,inactive: -0.0969
5,ATCTAAAT,inactive: 0.112
6,CAATTACC,inactive: -0.00996
7,GCTTAGTA,inactive: 0.0621
8,ATTCTCGA,inactive: 0.0405
9,ATCGTGAC,inactive: 0.139
10,CTGCTACC,inactive: 0.0224
11,AGTGAACG,inactive: -0.0721
12,CCATAGTA,inactive: 0.08
13,AAATACGA,≥ 0.166
14,ACGCTACC,inactive: -0.129
15,ACTCCTTG,inactive: 0.0436
16,GCCAACCC,inactive: -0.161
17,GAGGTTAA,inactive: -0.0658
18,AGCGATTC,inactive: -0.0626
19,ATTTTATC,inactive: 0.153
20,AGAGGCCC,inactive: -0.192
21,ACGCTGAC,inactive: -0.0669
22,CAGGCCCA,inactive: -0.226
23,ATCGAAAC,inactive: -0.0231
24,GTACCAAC,inactive: 0.114
25,CCTGCGCA,inactive: -0.226

row,Sequence,PBM E-score
1,GCCTAAAA,inactive: -0.107
2,AGGAATCC,inactive: -0.082
3,CCAGTTCG,inactive: -0.0558
4,CTTACGCC,inactive: -0.0701
5,TACATCGA,active: 0.314
6,ATCGGGTA,inactive: -0.0219
7,ACGCGTTG,inactive: 0.0245
8,CAGTGACG,inactive: -0.0473
9,GCTGTTAA,inactive: 0.0966
10,ACAGCTAT,inactive: 0.145
11,CCGTCCTA,inactive: -0.0783
12,ACGGCACT,inactive: -0.0892
13,AAAACTCA,inactive: -0.00205
14,GAATGATA,inactive: 0.179
15,CATCGACC,inactive: -0.022
16,CGTGTGAG,inactive: -0.0281
17,TATGAAGA,inactive: 0.0466
18,GCATTTTA,inactive: 0.0692
19,AGATGTGA,inactive: 0.096
20,AAGCAATT,inactive: 0.11
21,AATCTGAA,inactive: 0.0863
22,CGTCTCGC,inactive: -0.162
23,AGCAACTC,inactive: 0.00314
24,CAAGCAGG,inactive: -0.0901
25,CACAGACC,inactive: -0.0439

row,Sequence,PBM E-score
1,CTCCGTTC,inactive: -0.061
2,AATCTAGC,inactive: -0.075
3,TCCCAAAA,inactive: -0.0172
4,TAGCATCA,inactive: 0.106
5,GCATCAGC,inactive: -0.0861
6,CACTCTCA,inactive: -0.0658
7,ACAGATCA,≥ 0.172
8,GGCGTGGA,inactive: -0.174
9,CACATAGA,inactive: 0.0991
10,TAAAATTA,inactive: 0.035
11,AGAACCCG,inactive: -0.133
12,ATTTATCC,inactive: 0.0759
13,TCATAACA,inactive: 0.205
14,ATCTCTAA,inactive: -0.0218
15,CCTTACGA,inactive: -0.0366
16,AGTGTTCG,inactive: 0.133
17,CGATACCC,inactive: -0.0449
18,AATAACGA,inactive: 0.159
19,AATCGAGT,inactive: 0.0367
20,CATACATA,inactive: 0.286
21,ATACACGA,active: 0.33
22,AGACAGGC,inactive: -0.00368
23,AAGGTCCT,inactive: -0.138
24,GATGTTTA,inactive: 0.247
